# Laboratory results published in patent publication US4480030A, “Tripeptide derivatives and their application in assaying enzymes” (Pentapharm A.G., priority 1980, dated 1984).
# Where a name gives a salt, the structure may show the parent alone. Not every detail of the peptide structures is certain; ends, links or a residue may be inferred. Square brackets hold non-standard residues; d marks the D form. Peptide text beside a SMILES is read from it. * marks the point of attachment. dCha = N[C@H](CC1CCCCC1)C(=O)O; pNA = O=[N+]([O-])c1ccc(N*)cc1; dNle = CCCC[C@@H](N)C(=O)O; dNva = CCC[C@@H](N)C(=O)O; Octanoyl = CCCCCCCC(=O)*; Cbz = O=C(OCc1ccccc1)*; PhAc = O=C(Cc1ccccc1)*; Boc = CC(C)(C)OC(=O)*; Aoc = NCCCCCCCC(=O)O; Butyryl = CCCC(=O)*; Bz = O=C(c1ccccc1)*; GABA = NCCCC(=O)O; Sar = CNCC(=O)O; Moc = COC(=O)*
# Biological target: T1, human factor Xa (Homo sapiens, UniProt P00742)
# T1 construct: from tissue
# T1 sequence (P00742 235-488 limits assumed): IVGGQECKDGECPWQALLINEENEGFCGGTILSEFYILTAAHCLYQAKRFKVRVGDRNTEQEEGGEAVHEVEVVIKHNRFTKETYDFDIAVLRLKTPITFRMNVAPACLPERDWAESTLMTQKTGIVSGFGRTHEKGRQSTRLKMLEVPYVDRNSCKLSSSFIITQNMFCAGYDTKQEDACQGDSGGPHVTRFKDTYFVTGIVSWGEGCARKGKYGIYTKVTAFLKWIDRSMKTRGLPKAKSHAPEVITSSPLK
# T1 sequence (P00742 41-179 partner limits assumed): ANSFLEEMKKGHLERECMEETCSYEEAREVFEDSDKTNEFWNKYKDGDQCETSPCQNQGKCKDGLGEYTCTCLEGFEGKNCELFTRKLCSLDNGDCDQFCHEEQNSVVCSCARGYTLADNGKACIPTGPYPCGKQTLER
# Assay: Activity of factor Xa obtained by RVV activation of factor X in normal human blood plasma on substrate (split product H-R5 released)
# Assay type: biochemical
# Details: substrate concentration 2 × 10^-4; TRIS-imidazole buffer pH 8.4, ionic strength 0.3, 37° C.; citrated plasma activated with Russel viper venom 75 seconds; value calculated for 1 ml of citrated plasma
# Procedure: The values of the factor Xa activity given in Table 4 were determined experimentally in the manner described hereinafter:
# For determining the activity of human factor Xa 0.01 ml of normal citrated plasma was mixed with 0.20 ml of a solution of Russel viper venom in TRIS-imidazole buffer having a pH of 8.4 and an ionic strength of 0.3 and containing 15 mmoles of CaCl2 […]. The mixture was incubated for 75 seconds at 37° C. in order to activate factor X present in the plasma and convert it completely into factor Xa. To the incubate there was added first 1.40 ml of TRIS-imidazole buffer (pH 8.4, ionic strength 0.3) heated to 37° C. and then 0.40 ml of a 2×10^-3 M aqueous solution of a substrate of the invention. Thereafter, the quantity of split produce H--R^5 in nanomoles released per minute was determined, and the corresponding value for 1 ml of citrated plasma was calculated.
row,Structure (SMILES),"Activity of factor Xa as obtained by activation of factor X in 1 ml of normal human blood plasma by means of RVV, expressed in nanomoles of split product H--R^5 released per minute"
1,"CCCN(CC(=O)N[C@@H](CCCNC(=N)N)C(=O)Nc1ccc([N+](=O)[O-])cc1)C(=O)[C@@H](CC(C)C)NC(=O)OCc1ccccc1 [Example 27, Cbo--D-Leu--N(Pr)Gly--Arg--pNA.HBr]",435 nanomoles of split product H--
2,"CN(CC(=O)N[C@@H](CCCNC(=N)N)C(=O)Nc1ccc([N+](=O)[O-])cc1)C(=O)[C@@H](CC1CCCCC1)NC(=O)OCc1ccccc1 [Example 28, Cbo--D-CHA--Sar--Arg--pNA.HBr] (Cbz-[dCha]-[Sar]-Arg-pNA)",1656 nanomoles of split product H--
3,"CN(CC(=O)N[C@@H](CCCNC(=N)N)C(=O)Nc1ccc([N+](=O)[O-])cc1)C(=O)[C@@H](CC1CCC(O)CC1)NC(=O)OCc1ccccc1 (stereo partly drawn) [Example 29, Cbo--D-CHT--Sar--Arg--pNA.HBr]",1840 nanomoles of split product H--
4,"CCCC[C@@H](NC(=O)OCc1ccccc1)C(=O)N(C)CC(=O)N[C@@H](CCCNC(=N)N)C(=O)Nc1ccc([N+](=O)[O-])cc1 [Example 30, Cbo--D-Nleu--Sar--Arg--pNA.HBr] (Cbz-[dNle]-[Sar]-Arg-pNA)",1609 nanomoles of split product H--
5,"CCC[C@@H](NC(=O)OCc1ccccc1)C(=O)N(C)CC(=O)N[C@@H](CCCNC(=N)N)C(=O)Nc1ccc([N+](=O)[O-])cc1 [Example 31, Cbo--D-Nval--Sar--Arg--pNA.HBr] (Cbz-[dNva]-[Sar]-Arg-pNA)",1016 nanomoles of split product H--
6,"CC(C)C[C@@H](NS(=O)(=O)c1ccccc1)C(=O)NCC(=O)N[C@@H](CCCNC(=N)N)C(=O)Nc1ccc([N+](=O)[O-])cc1 [Example 32, Benzenesulfonyl-D-Leu--Gly--Arg--pNA.HBr]",695 nanomoles of split product H--
7,"CC(C)C[C@@H](NS(=O)(=O)c1cccc2ccccc12)C(=O)NCC(=O)N[C@@H](CCCNC(=N)N)C(=O)Nc1ccc([N+](=O)[O-])cc1 [Example 34, α -Naphthalenesulfonyl-D-Leu--Gly--Arg--pNA.HBr]",560 nanomoles of split product H--
8,"CCCCS(=O)(=O)N[C@H](CC(C)C)C(=O)NCC(=O)N[C@@H](CCCNC(=N)N)C(=O)Nc1ccc([N+](=O)[O-])cc1 [Example 35, n-butanesulfonyl-D-Leu--Gly--Arg--pNA.HBr]",890 nanomoles of split product H--
9,"CCCC[C@@H](NC(C)=O)C(=O)NCC(=O)N[C@@H](CCCNC(=N)N)C(=O)Nc1ccc([N+](=O)[O-])cc1 [Example 36, Ac--D-Nleu--Gly--Arg--pNA.HBr] (Ac-[dNle]-Gly-Arg-pNA)",105 nanomoles of split product H--
10,"CCCC[C@@H](NC(=O)CCC)C(=O)NCC(=O)N[C@@H](CCCNC(=N)N)C(=O)Nc1ccc([N+](=O)[O-])cc1 [Example 37, n-Butyryl-D-Nleu--Gly--Arg--pNA.HBr] (Butyryl-[dNle]-Gly-Arg-pNA)",115 nanomoles of split product H--
11,"CCCCCCCC(=O)N[C@H](CCCC)C(=O)NCC(=O)N[C@@H](CCCNC(=N)N)C(=O)Nc1ccc([N+](=O)[O-])cc1 [Example 38, n-Octanoyl-D-Nleu--Gly--Arg--pNA.HBr] (Octanoyl-[dNle]-Gly-Arg-pNA)",135 nanomoles of split product H--
12,"CC(C)C[C@@H](NC(=O)Cc1ccccc1)C(=O)N(C)CC(=O)N[C@@H](CCCNC(=N)N)C(=O)Nc1ccc([N+](=O)[O-])cc1 [Example 39, 2-Phenylacetyl-D-Leu--Sar--Arg--pNA.HBr] (PhAc-[dL]-[Sar]-Arg-pNA)",620 nanomoles of split product H--
13,"CC(C)C[C@@H](NC(=O)CCCc1ccccc1)C(=O)N(C)CC(=O)N[C@@H](CCCNC(=N)N)C(=O)Nc1ccc([N+](=O)[O-])cc1 [Example 40, 4-Phenylbutryl-D-Leu--Sar--Arg--pNA.HBr]",570 nanomoles of split product H--
14,"CC(C)C[C@@H](NC(=O)C1CCCCC1)C(=O)N(C)CC(=O)N[C@@H](CCCNC(=N)N)C(=O)Nc1ccc([N+](=O)[O-])cc1 [Example 41, Cyclohexylcarbonyl-D-Leu--Sar--Arg--pNA.HBr]",420 nanomoles of split product H--
15,"CCCC[C@@H](NC(=O)CNC(=O)OCc1ccccc1)C(=O)N(C)CC(=O)N[C@@H](CCCNC(=N)N)C(=O)Nc1ccc([N+](=O)[O-])cc1 [Example 44, Cbo--Gly--D-Nleu--Sar--Arg--pNA.HBR] (Cbz-G[dNle][Sar]R-pNA)",75 nanomoles of split product H--
16,"CCCC[C@@H](NC(=O)CN)C(=O)N(C)CC(=O)N[C@@H](CCCNC(=N)N)C(=O)Nc1ccc([N+](=O)[O-])cc1 [Example 45, H--Gly--D-Nleu--Sar--Arg--pNA.2HBr] (H-G[dNle][Sar]R-pNA)",112 nanomoles of split product H--
17,"CCCC[C@@H](NC(=O)CCCN)C(=O)N(C)CC(=O)N[C@@H](CCCNC(=N)N)C(=O)Nc1ccc([N+](=O)[O-])cc1 [Example 47, ω -Aminobutyryl-D-Nleu--Sar--Arg--pNA.2HBr] (H-[GABA][dNle][Sar]R-pNA)",206 nanomoles of split product H--
18,"CCCC[C@@H](NC(=O)CCCCCCCN)C(=O)N(C)CC(=O)N[C@@H](CCCNC(=N)N)C(=O)Nc1ccc([N+](=O)[O-])cc1 [Example 49, ω -Aminooctanoyl-O-Nleu--Sar--Arg--pNA.2HBr] (H-[Aoc][dNle][Sar]R-pNA)",218 nanomoles of split product H--
19,"CCC[C@@H](NC(=O)c1ccccc1)C(=O)NCC(=O)N[C@@H](CCCNC(=N)N)C(=O)Nc1ccc([N+](=O)[O-])cc1 [Example 50, Bz--D-Nval--Gly--Arg--pNA.HBr] (Bz-[dNva]-Gly-Arg-pNA)",420 nanomoles of split product H--
20,"CCC[C@@H](NC(=O)c1ccc(C)cc1)C(=O)NCC(=O)N[C@@H](CCCNC(=N)N)C(=O)Nc1ccc([N+](=O)[O-])cc1 [Example 51, 4-Methylbenzoyl-D-Nval--Gly--Arg--pNA.HBr]",425 nanomoles of split product H--
21,"CCC[C@@H](NC(=O)c1ccccc1Cl)C(=O)NCC(=O)N[C@@H](CCCNC(=N)N)C(=O)Nc1ccc([N+](=O)[O-])cc1 [Example 52, 2-Chlorobenzoyl-D-Nval--Gly--Arg--pNA.HCl]",415 nanomoles of split product H--
22,"CCC[C@@H](NC(=O)Cc1ccc(N)cc1)C(=O)NCC(=O)N[C@@H](CCCNC(=N)N)C(=O)Nc1ccc([N+](=O)[O-])cc1 [Example 54, 2-(4-Amino)-phenylacetyl-D-Nval--Gly--Arg--pNA.2HBr]",505 nanomoles of split product H--
23,"CCC[C@@H](NC(=O)OC)C(=O)N(C)CC(=O)N[C@@H](CCCNC(=N)N)C(=O)Nc1ccc([N+](=O)[O-])cc1 [Example 55, CH3 O--CO--D-Nval--Sar--Arg--pNA.HBr] (Moc-[dNva]-[Sar]-Arg-pNA)",1200 nanomoles of split product H--
24,"CCCCCCCCOC(=O)N[C@H](CCC)C(=O)N(C)CC(=O)N[C@@H](CCCNC(=N)N)C(=O)Nc1ccc([N+](=O)[O-])cc1 [Example 56, CH 3 --(CH2)7 --O--CO--D-Nval--Sar--Arg--pNA.HBr]",1060 nanomoles of split product H--
25,"CC(C)C[C@@H](NC(=O)OC(C)(C)C)C(=O)NCC(=O)N[C@@H](CCCNC(=N)N)C(=O)Nc1ccc([N+](=O)[O-])cc1 [Example 57, BOC--D-Leu--Gly--Arg--pNA.HBr] (Boc-[dL]-Gly-Arg-pNA)",1360 nanomoles of split product H--
26,"COc1ccc(COC(=O)N[C@H](CC(C)C)C(=O)NCC(=O)N[C@@H](CCCNC(=N)N)C(=O)Nc2ccc([N+](=O)[O-])cc2)cc1 [Example 58, 4-MeO--Cbo--D-Leu--Gly--Arg--pNA.HBr]",1430 nanomoles of split product H--
